Publication PMC12136788
The other results are listed elsewhere or left out.

B1: ENSG00000198589:be:win_8951|3pUTR|ENSG00000198589|bound_else_gene|NA|bound_elsewhere_windowed (ssRNA)
RNA: GGGAGUUCUACAGUCCGACGAUCGAAAAUUUGAUGCUGUAAUUUGGGUCCUGUAUUUUUCCAAACAACUGUGCUUCUUCAGCACUAAUAUUUCUGGGAUUUAAAUAGUAAUGUUUAAAUUAUGGUAAAUGUAAUUUAAAACAUCAACAGAGGAUUGAGCAUCA
B2: chrX:117909842:117909960:-|CDS|ENSG00000003096|unk|total|mutant (ssRNA)
RNA: GGGAGUUCUACAGUCCGACGAUCAGCACAGGGGAGUUCUUGAAACUCCCUUUUGAGCGUCUUGCCUUCGUGCUUUCCAGUAACCGCCUUAAGCACUGUACUGAACUUGAGCUCUUUAAGGCUACCUGUCGUUGGCUUCGCCUGCAACAGAGGAUUGAGCAUCA
B3: chr3:48432659:48432768:-|CDS|ENSG00000164051|unk|total|mutant (ssRNA)
RNA: GGGAGUUCUACAGUCCGACGAUCAGUCCCCCGACCAGAGACAGAGAUGCCGAUGUCCUUUCAGCUGCCUUGAAAGAGCAGCUCCGUCAUUCCAGGCAAGUCCAUUCAUGUCCCGAAGGCUUACGAGAGCAGCUUGAUGGCCUACAACAGAGGAUUGAGCAUCA
B4: chr22:27980698:27980799:-|3pUTR|ENSG00000100154|unk|FALSE|unique (ssRNA)
RNA: GGGAGUUCUACAGUCCGACGAUCUAACCAUUAAUUUAUUUUAUAAAGAAAGGAAAUGCUGAAAGUCGUAUUAGUACUGAGUUUAGUUGGAGAAUUUAGAUAAGUAAGUAUCUUUUAGGUAAUUCUAAAAUUAAAAUCCUACCCCAACAGAGGAUUGAGCAUCA
B5: chr7:88202242:88202358:+|3pUTR|ENSG00000008277|unk|FALSE|unique (ssRNA)
RNA: GGGAGUUCUACAGUCCGACGAUCUCAGGAUAGAUAAGCAUGUACUCCUUUUUUAACUUGCUGGAAGACUUGCCCCUCCAAACUAGCACCCCCAAAAGACAACUUCUUUCAGAAACGGGGUGUUUUACCUAAACAUAGUAGCUUCAACAGAGGAUUGAGCAUCA
B6: chr1:117869688:117869789:-|3pUTR|ENSG00000196505|msi1|FALSE|unique (ssRNA)
RNA: GGGAGUUCUACAGUCCGACGAUCACUCCAGCAGUGAGCAUUUAGAGAGUGUGUUGUCUUCCAGAGUCAUGAAUGAUUUUGUUUAGCUAUCAGGUCUACUACCUCUAAGGACAUUUCAUAGCAGCAUCUCUUGAGUUGCCUGCACAACAGAGGAUUGAGCAUCA
B7: chr12:95077336:95077437:-|3pUTR|ENSG00000180263|msi1|total|mutant (ssRNA)
RNA: GGGAGUUCUACAGUCCGACGAUCUCCUCAUUGACCCAUCCGCAUCUCUGUUUAUCCAAGACUUCUCUGUGACCGCUGACCCUCCGUCUUUCUCUCCCCUAUUCCUCCAGACCCGAUCCUGUCUCCUUCCUGCAGCCCCGACACCAACAGAGGAUUGAGCAUCA
B8: chr8:23145667:23145921:-|CDS|ENSG00000173530|control|control|control (ssRNA)
RNA: GGGAGUUCUACAGUCCGACGAUCGGGGAUGCUUGCCUCUCCCUAUCACUACCUUAUCAUCAUAGUGGUUUUAGUCAUCAUUUUAGCUGUGGUUGUGGUUGGCUUUUCAUGUCGGAAGAAAUUCAUUUCUUACCUCAAAGGCAUCAACAGAGGAUUGAGCAUCA
B9: chr5:157162449:157163658:-|CDS|ENSG00000170613|control|control|control (ssRNA)
RNA: GGGAGUUCUACAGUCCGACGAUCGGUCACAUCACAUGACAGAGAGGUAGAUAUCGUGGCUAAGAUGGUGGAGAAGCAAAACAUAGAGGCCAAAGUGGAGAAAGCCCAGGGUGGCCAGGAGCUGGAGAUGAUCAGUGGCACUAUCAACAGAGGAUUGAGCAUCA
B10: chr5:154898482:154898583:-|CDS|ENSG00000082516|unk|total|mutant (ssRNA)
RNA: GGGAGUUCUACAGUCCGACGAUCUUUGGCCAAAAAGGGGGAUGCGGCAUCACUCCGAACGGCUGCAGAGUUGGCUGCCAUCGCCGGAGAGGAUGAGUUGUCUGCUUCCCUGGCUCUCAGAUGUGCCCAAGAGCUGCUUCUGGCCAACAGAGGAUUGAGCAUCA
B11: chr6:107883018:107883119:-|CDS|ENSG00000025796|unk|FALSE|bound_elsewhere (ssRNA)
RNA: GGGAGUUCUACAGUCCGACGAUCAAGGAAGAUGAAGAAGAAGUUUCAGAUAAGGGCAGUGAUUCUGAAGAAGAAGAAACCAAUAGAGAUUCCCAAAGUGAGAAAGAUGAUGGUAGUGACAGAGACUCUGAUAGAGAGCAAGAUCAACAGAGGAUUGAGCAUCA
B12: chr22:28629602:28629705:-|CDS|ENSG00000100154|unk|total|mutant (ssRNA)
RNA: GGGAGUUCUACAGUCCGACGAUCAUUGUUCUGUAUAAUGAAGCCCUGGCUGUUGACCCUCAGAACUGCAUCUUAUACAGCAACCGAUCUGCAGCCUACAUGAAAAUCCAGCAGUAUGACAAGGCACUGGAUGAUGCAAUCAAACAACAGAGGAUUGAGCAUCA
B13: ENSG00000124766:be:win_2251|3pUTR|ENSG00000124766|bound_else_gene|NA|bound_elsewhere_windowed (ssRNA)
RNA: GGGAGUUCUACAGUCCGACGAUCACGGUCAAACUGAAAUGGAUUUGCACGUUGGGGAGCUGGCGGCGGCGGCUGCUGGGCCUCCGCCUUCUUUUCUACGUGAAAUCAGUGAGGUGAGACUUCCCAGACCCCGGAGGCGUGGAGCAACAGAGGAUUGAGCAUCA
B14: chr7:50445662:50445763:-|CDS|ENSG00000132436|msi1|total|mutant (ssRNA)
RNA: GGGAGUUCUACAGUCCGACGAUCGUUAUCUCAACGGGGAGAUGGUGAGCAUGAAUCUUCCCGAAGGAUAAAAACAGAAUUUUCCGUUCAAUCCGAUGGAGCAACAACAUCUUCUGAAGAUCGUAUCCCCGUGGUGGGAGCAACCAACAGAGGAUUGAGCAUCA
B15: chr10:24620413:24620514:-|CDS|ENSG00000107863|msi1|total|mutant (ssRNA)
RNA: GGGAGUUCUACAGUCCGACGAUCGUGCUAAUGAAGUAUUGUCCAAGAAGUGCAUCUCAAGGAGCACUGACGUCUCCAUCUGUCCGUUUCCGUAAUCACCGAACUCGUUCAUGGGAUUAUAUUGAGGGACAGGAUGAAACCUUACAACAGAGGAUUGAGCAUCA
B16: chr2:85327303:85327429:-|CDS|ENSG00000152291|msi1|total|mutant (ssRNA)
RNA: GGGAGUUCUACAGUCCGACGAUCACCCAAAAAGGCAGCACCCGCAAGUCGGGUUCGGAGGCGCAGACCACAAAAGACAGCACCCGUAAGUCGCAUCCGGAGCUGCAGACUCCAAAAGACAGCACUGGCAAAUCGGGUGCGGAGCAACAGAGGAUUGAGCAUCA
B17: chr1:32364632:32368550:-|three_prime_utr|ENSG00000160058|control|control|control (ssRNA)
RNA: GGGAGUUCUACAGUCCGACGAUCGCUCAGACCCACAACAUUGGUCAUCAGCAGGCUGCACUUUUCCUCAGUUCCAGGGUGGAUAGAGGGUCAAGUUCUUGACCUUAGCUCUGUAUCAAAAUUGCCUGAGAAACUGCUUAAGAACAACAGAGGAUUGAGCAUCA
B18: ENSG00000138778:stop:overlap|stop_codon|ENSG00000138778|stop_codon|NA|stop_codon (ssRNA)
RNA: GGGAGUUCUACAGUCCGACGAUCCUCAGCCAGGUCCUUGGCACGCCUCCUCAGGCAAGGAUGUGCCUGAGUGCAAAACUCAGUAGACUCCUCUUUGUCACUUCUCUGGAGAUCCAGCAUUCCUUAUUUGGAAAUGACUUUGUUCAACAGAGGAUUGAGCAUCA
B19: chr1:108700024:108700125:+|3pUTR|ENSG00000134186|msi1|FALSE|bound_elsewhere (ssRNA)
RNA: GGGAGUUCUACAGUCCGACGAUCCACAUUGAAUCCUAUAAAUGAUUAAAUCUGCUUUUUUCCCCCACGUUGAGAUUGUGCAGUAGUUCGCACUCCUCAAGCUCUCCCUGUAGGCUGCAUUUUCAUUUCCUCUUUCGUGUAGGGCAACAGAGGAUUGAGCAUCA
B20: chr1:64832709:64832810:+|3pUTR|ENSG00000162437|msi1|total|mutant (ssRNA)
RNA: GGGAGUUCUACAGUCCGACGAUCACAGCCCGAAAGUUUAAGGUAAUUUCUAAGUAUACUACCUAUAAGUAACUGAUAAGAAUCCGGCAUCAUUCAGUGAUACCGCAGAUGACUAAUGGGUUUUUCAGGCCCUGCACUUCUCUUCAACAGAGGAUUGAGCAUCA
B21: chr8:38210141:38210254:+|CDS|ENSG00000156735|unk|FALSE|unique (ssRNA)
RNA: GGGAGUUCUACAGUCCGACGAUCGCUGAGCCUCAGCUGUAUGGUAAUGCCACCAGUGACCAUCCCAACAAUCAAGAUCAAAGUAGCAGUCUUCCUGAAGAAUGUGUACCUUCAGAUGAAAGUACUCCUCCGAGUAUUAAAAAACAACAGAGGAUUGAGCAUCA
B22: chr11:10511672:10514915:-|three_prime_utr|ENSG00000110315|control|control|control (ssRNA)
RNA: GGGAGUUCUACAGUCCGACGAUCGAAGUGAAAGUCUUCUGUUGCUAUUGUGGGCUCAAAUAUUUGGUCAUGGGGGAAGAAUGUAGGGUUGUGGCACUGGCACAGACACAGGAAAAUCCAUUUUCCCCACUCUUUUAUUUUUGCCAACAGAGGAUUGAGCAUCA

These binders were tested against MSI1 full-length (mouse, UniProt Q61474 1-362) (assay: nsRBNS (natural sequence RNA bind-n-seq); RBNS binding buffer (assumed for nsRBNS): 25 mM Tris pH 7.5, 150 mM KCl, 3 mM MgCl2, 0.01% Triton X-100, 500 ug/ml BSA, 20 U/ml SUPERase-In, 4 C; UNK is unkempt and MSI1 is Musashi-1; names of the RNAs are library labels; protein concentration not given here; high values mean tight binding).
UniProt Q61474, sequence (Q61474 whole entry): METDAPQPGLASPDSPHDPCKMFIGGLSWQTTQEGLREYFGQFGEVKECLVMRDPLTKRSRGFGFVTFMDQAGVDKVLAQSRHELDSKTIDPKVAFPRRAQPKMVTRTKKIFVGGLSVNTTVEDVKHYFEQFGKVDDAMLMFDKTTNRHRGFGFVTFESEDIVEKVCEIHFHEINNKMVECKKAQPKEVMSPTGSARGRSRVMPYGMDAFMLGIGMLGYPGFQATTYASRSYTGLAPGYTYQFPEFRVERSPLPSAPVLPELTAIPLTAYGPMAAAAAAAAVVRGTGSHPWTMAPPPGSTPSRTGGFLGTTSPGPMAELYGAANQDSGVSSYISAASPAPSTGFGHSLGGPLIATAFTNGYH

Binder	binding signal [enrichment R]
B1	0.503
B2	0.349
B3	0.43
B4	12.2
B5	2.56
B6	0.721
B7	0.928
B8	2.8
B9	0.709
B10	0.367
B11	7.31
B12	0.294
B13	0.463
B14	0.332
B15	0.238
B16	0.393
B17	0.437
B18	0.399
B19	1.7
B20	0.266
B21	0.453
B22	0.486
